SMILES strings stand for the structures. The whole screen tested about 310,000 compounds, of which about 2,200 (0.71%) showed an effect of 50% or more. Effects have a minus sign here. This is one part of the list.

For this experiment, the target named is human ether-à-go-go-related gene (hERG) potassium channel (human, UniProt Q12809). The experiment can be described thus: primary screen, population patch clamp on CHO cells stably expressing hERG.
Sequence of human ether-à-go-go-related gene (hERG) potassium channel (Q12809 whole entry, looked up): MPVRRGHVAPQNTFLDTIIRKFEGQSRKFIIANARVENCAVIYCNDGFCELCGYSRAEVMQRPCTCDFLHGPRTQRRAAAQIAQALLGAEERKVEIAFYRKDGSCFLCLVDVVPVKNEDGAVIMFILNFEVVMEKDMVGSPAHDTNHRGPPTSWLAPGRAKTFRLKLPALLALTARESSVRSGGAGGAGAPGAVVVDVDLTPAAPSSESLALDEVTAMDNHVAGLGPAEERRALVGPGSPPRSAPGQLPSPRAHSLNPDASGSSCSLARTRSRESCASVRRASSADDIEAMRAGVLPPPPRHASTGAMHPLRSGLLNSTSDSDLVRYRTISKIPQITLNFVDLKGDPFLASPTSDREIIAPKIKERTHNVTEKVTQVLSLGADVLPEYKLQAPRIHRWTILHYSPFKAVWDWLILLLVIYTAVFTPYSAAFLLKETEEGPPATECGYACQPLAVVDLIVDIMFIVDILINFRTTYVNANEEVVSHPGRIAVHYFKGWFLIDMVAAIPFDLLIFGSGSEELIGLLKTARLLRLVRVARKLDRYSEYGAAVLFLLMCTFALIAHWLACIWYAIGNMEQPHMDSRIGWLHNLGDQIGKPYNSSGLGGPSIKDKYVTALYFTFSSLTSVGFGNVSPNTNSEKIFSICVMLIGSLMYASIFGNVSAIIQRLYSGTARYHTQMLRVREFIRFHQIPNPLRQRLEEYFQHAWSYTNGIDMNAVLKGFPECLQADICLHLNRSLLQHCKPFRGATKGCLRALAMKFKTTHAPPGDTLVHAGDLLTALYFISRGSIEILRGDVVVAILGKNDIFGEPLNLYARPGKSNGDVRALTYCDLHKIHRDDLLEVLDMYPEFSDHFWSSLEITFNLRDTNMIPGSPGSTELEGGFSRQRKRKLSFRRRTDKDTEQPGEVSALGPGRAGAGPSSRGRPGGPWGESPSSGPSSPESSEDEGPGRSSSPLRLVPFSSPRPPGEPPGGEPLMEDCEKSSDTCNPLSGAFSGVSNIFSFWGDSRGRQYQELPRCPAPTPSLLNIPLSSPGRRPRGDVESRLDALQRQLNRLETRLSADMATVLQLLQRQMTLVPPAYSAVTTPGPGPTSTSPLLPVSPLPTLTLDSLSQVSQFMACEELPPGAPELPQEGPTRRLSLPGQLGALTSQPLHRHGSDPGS
Regarding `COC(=O)C(C)N(C(=O)c1cccc(Cl)c1)c1c(C)cccc1C` (stereo not drawn), the “hERG current change (%, negative = inhibition) at 1uM” value amounted to 16.8%. For `CCOc1ccccc1CSc1nc2ccccc2[nH]1`, the “hERG current change (%, negative = inhibition) at 1uM” value is reported as 11.1%. Then `CCC(=O)N/C(N)=N/c1nc(C)c2cc(OC)ccc2n1`, with 3.38%.

For `CO/N=C(/CS(=O)Cc1ccc(Cl)cc1)c1ccc(Cl)cc1` (stereo not drawn), the “hERG current change (%, negative = inhibition) at 1uM” value is on record as -6.81%.

On to `COc1ccc(NC(C)=O)cc1NC(=O)CCn1c(=O)sc2ccccc21`, for which the “hERG current change (%, negative = inhibition) at 1uM” value is 8.35%. In the case of `COc1ccc(OC)c(N/C=C/C(=C(C#N)C#N)N(C)C)c1`, the “hERG current change (%, negative = inhibition) at 1uM” value came out at 3.82%. As for `O=C1NCCN(Cc2ccc(Cl)c(F)c2)C1CC(=O)N1CCCO1` (stereo not drawn), the “hERG current change (%, negative = inhibition) at 1uM” value was 12.7%. In the case of `COc1ccc(C(OC(=O)c2ccco2)C(=O)NC2CCCCC2)cc1` (stereo not drawn), the “hERG current change (%, negative = inhibition) at 1uM” value stood at 4.31%. With `C[N+]1(CC(=O)NNc2c3ccccc3nc3ccccc23)CCOCC1.[Br-]`, the “hERG current change (%, negative = inhibition) at 1uM” value amounted to 7.7%. Then `COc1cccc(SCc2noc(C(=O)NCCC(C)C)c2C(=O)NCCC(C)C)c1`, with 9.89%.

Consider `COc1cc(CN(C(=O)c2ccco2)C2CCS(=O)(=O)C2)cc(OC)c1OC` (stereo not drawn), for which the “hERG current change (%, negative = inhibition) at 1uM” value was determined as 11.1%. Then `O=C(O)C(=O)O.O=C1CCCN1CN1CCCCC1`, with -4.92%; and `Cc1cccc(CNc2ccc(C(CC(N)=O)NC(=O)c3cccc(Br)c3)cc2[N+](=O)[O-])c1` (stereo not drawn), with -14.5%. As for `Cc1ncc(CN2CCC(C(=O)Nc3cccc(-c4cscn4)c3)CC2)cn1`, the “hERG current change (%, negative = inhibition) at 1uM” value is 0.714%.

Take `Cc1cccc(N2CCN(C(=O)Cc3c(C(=O)O)[nH]c4ccc(Cl)cc34)CC2)c1C`: the “hERG current change (%, negative = inhibition) at 1uM” value was determined as 10.7%. As to `COc1ccccc1C(=O)Nc1nc2ccc(S(C)(=O)=O)cc2s1`, the “hERG current change (%, negative = inhibition) at 1uM” value is on record as -1.41%.

`O=C(c1ccc(F)cc1F)N1CCN(S(=O)(=O)c2ccc3c(c2)OCCO3)CC1`: the “hERG current change (%, negative = inhibition) at 1uM” value is 7.48%. Regarding `OC(Cn1ccnc1)c1ccc(Cl)cc1Cl` (stereo not drawn), the “hERG current change (%, negative = inhibition) at 1uM” value was found to be 0.389%. With `O=[N+]([O-])c1cccc(-c2noc3c2-c2nc(Cc4cccc5ccccc45)sc2CC3)c1` the figure was 14.2%; with `CC(C)CCNC(=O)CN(Cc1ccco1)C(=O)CCC(=O)Nc1nccs1`, 3.24%. Then `COC(=O)[C@@]1(C#N)[C@@H]2C=CC(C(C)=O)=CN2[C@@H](C(N)=O)[C@@H]1c1ccc(F)cc1`, with 3.41%; and `O=C(Cc1ccccc1)Nc1ccc2c(c1)CCC2`, with 1.78%. With `CCCS(=O)(=O)c1nnnn1-c1cccc(OC)c1` the figure was -3.62%.

As to `O=C(CNC(=O)c1ccccc1Cl)N/N=C/c1ccc([N+](=O)[O-])s1`, the “hERG current change (%, negative = inhibition) at 1uM” value is listed as 5.66%. As for `Cc1cc(=O)oc2cc(OCC(=O)NCCN3CCOCC3)c(Cl)cc12`, the “hERG current change (%, negative = inhibition) at 1uM” value was 13.6%. Then `CCOc1ccc(NC(=O)NC2CCOC(C)(C)C2)cc1` (stereo not drawn), with -17.1%; and `CC1CCCN(C(=O)Cn2nnc(-c3ccc([N+](=O)[O-])cc3)n2)C1` (stereo not drawn), with 11.5%. With `CC/C(=N\NC(=O)C1CC1)c1cccc(Cl)c1`, the “hERG current change (%, negative = inhibition) at 1uM” value came out at 16.9%. Then `Fc1ccc(NC(=S)N2CCCC(c3ccccc3)=N2)cc1`, with 16.2%; and `Cc1ccc2cccc(S(=O)(=O)NC3CCS(=O)(=O)C3)c2n1` (stereo not drawn), with -11.2%; and `C=CCOc1ccc(/C(O)=C2/C(=O)C(=O)N(CCN3CCOCC3)C2c2ccc(C)cc2)cc1` (stereo not drawn), with 0.547%. With `Cc1cccc(OCc2ccc(C(=O)N3CCOCC3)o2)c1` the figure was 26.4%. In the case of `O=C(N/N=C/c1sc(N2CCCCC2)nc1-c1cccs1)c1cccnc1`, the “hERG current change (%, negative = inhibition) at 1uM” value came out at 19.6%. With `COc1ccc(NCC(=O)N2CCCC2)cc1Cl` the figure was 10.6%; with `CC(C)(C)NC(=O)CN(C(=O)CS(=O)CC(=O)Nc1ccc(F)cc1)c1ccc2c(c1)OCCO2` (stereo not drawn), 11.7%.

As for `CC(C)C(CC(=O)N1CCCCC1)C1CCOC(C)(C)C1` (stereo not drawn), the “hERG current change (%, negative = inhibition) at 1uM” value amounted to 2.97%. For `CCC1CCC(C(=O)NC(CCSC)C(=O)NCCN(CC(C)C)CC(C)C)CC1` (stereo not drawn), the “hERG current change (%, negative = inhibition) at 1uM” value was 5.99%. With `COc1ccc(OC)c(C2=C[N+](=O)C(C)(C)C(C)(C)N2[O-])c1` the figure was 1.31%; with `COc1ccc(OC)c(C(=O)N(C)C2CCCN(Cc3ccccc3F)C2)c1` (stereo not drawn), 5.98%. Take `CC(C)n1cnc2c(oc3ccccc32)c1=O`: the “hERG current change (%, negative = inhibition) at 1uM” value was found to be 9.24%. Then `O=c1[nH]nc(CNc2ccc(OC(F)(F)F)cc2)c2ccccc12`, with -14.8%; and `COc1ccc(N2CCN(CC(=O)Nc3c(C)cc(C)cc3C)CC2)cc1`, with 5.13%. With `CC(CCc1ccccc1)NC(=O)c1ccco1` (stereo not drawn), the “hERG current change (%, negative = inhibition) at 1uM” value is recorded as 20.2%.

On to `COc1cccc(OC)c1OCCOc1ccc(C(=O)c2ccccc2)cc1`, for which the “hERG current change (%, negative = inhibition) at 1uM” value was 2.65%. On to `Cc1ccc(-n2c(O)c(C=Nc3ccc4c(c3)OCO4)c3ccccc3c2=O)cc1C`, for which the “hERG current change (%, negative = inhibition) at 1uM” value was -5.77%. Then `CCn1c(COc2ccccc2C)nnc1SCC(=O)CC(=O)Nc1ccccc1OC`, with 0.976%; and `N#C/C(=C\c1ccc2c(c1)OCO2)C(=O)NCc1ccco1`, with 13%.

Take `CCOC(=O)C(=NC1CCCCC1)NNc1cccc(C(F)(F)F)c1`: the “hERG current change (%, negative = inhibition) at 1uM” value stood at 5.07%. In the case of `COC(=O)c1ccc(CNC(=O)c2ccc(OCC(=O)N3CCOCC3)c(OC)c2)cc1`, the “hERG current change (%, negative = inhibition) at 1uM” value was determined as 9.13%.

Turning to `Cc1cccc(N2CCN(C(=O)CNC(=O)c3ccccc3)CC2)c1C`, the “hERG current change (%, negative = inhibition) at 1uM” value was 2.99%. As to `O=C(NCC(c1ccco1)N1CCN(c2ccccc2F)CC1)OCc1ccccc1` (stereo not drawn), the “hERG current change (%, negative = inhibition) at 1uM” value turned out to be 10.2%.

As to `CN(c1ccc(OCC(=O)OCC(=O)c2c(N)n(C)c(=O)n(C)c2=O)cc1)S(=O)(=O)c1ccc2ccccc2c1`, the “hERG current change (%, negative = inhibition) at 1uM” value is listed as 1.42%.

As for `O=C(Nc1cccnc1)c1cnn2cccnc12`, the “hERG current change (%, negative = inhibition) at 1uM” value is listed as -8.49%. With `O=C(CSc1nnc(SCc2ccc(Cl)cc2)s1)N1CCN(C(=O)c2ccco2)CC1` the figure was -19.2%; with `CCC(C)NC(=O)CSc1n[nH]c(=O)n1CCc1ccccc1` (stereo not drawn), 4.75%; with `CNC[C@H](O)[C@@H](O)[C@H](O)[C@H](O)CO.Cc1c(Nc2ncccc2C(=O)O)cccc1C(F)(F)F`, 15.5%.

As for `COCCCN1C(=O)C(=O)/C(=C(/O)c2ccc(C)cc2)C1c1ccccc1` (stereo not drawn), the “hERG current change (%, negative = inhibition) at 1uM” value came to 13%. `O=C(N/N=C/c1cc2c(cc1Cl)OCO2)c1ccccn1`: the “hERG current change (%, negative = inhibition) at 1uM” value turned out to be 15.5%. In the case of `N#Cc1ccccc1S(=O)(=O)N1CCN(C(=O)c2cc(=O)[nH]c3ccccc23)CC1`, the “hERG current change (%, negative = inhibition) at 1uM” value is 12.5%. Regarding `NC(=O)C1CC(=O)N(Cc2ccc3c(c2)OCO3)C(=Nc2ccccc2)S1` (stereo not drawn), the “hERG current change (%, negative = inhibition) at 1uM” value turned out to be 13.2%. Then `Cc1ccc(CN2CCN(Cc3ccc4c(c3)OCCO4)CC2CCO)cc1` (stereo not drawn), with -3.94%; and `CNc1nc(-c2c(C)n(C)c3ccc(OC)cc23)cs1`, with 13.2%. With `COc1ccc(-c2cc(C(=O)NC3CCCC3)c3ccccc3n2)cc1OC` the figure was 8.22%.

On to `CCC(C)[C@@H]1NC(=O)N(CCCN2CCCC2=O)C1=O` (stereo partly drawn), for which the “hERG current change (%, negative = inhibition) at 1uM” value is recorded as 12.7%. With `Cc1[nH]c2ccccc2c1/C=N/n1cnnc1` the figure was 15.9%. Then `CN1C(=O)CC(N2CCN(c3ccc(Cl)c(Cl)c3)CC2)C1=O` (stereo not drawn), with 1.54%; and `Cc1cccc(CCNCc2cc3cccc(C)c3[nH]c2=O)c1`, with -35.7%. As for `CCCC(=O)c1cc(F)c(N2CCN(C(=O)OCC)CC2)cc1C`, the “hERG current change (%, negative = inhibition) at 1uM” value is recorded as 12.2%. On to `COc1ccc(CCN(C)C(=O)Cc2ccc(-c3ccccc3)cc2)cc1OC`, for which the “hERG current change (%, negative = inhibition) at 1uM” value came to 15.1%. Then `CCOP(=O)(OCC)c1nc(-c2ccc(Cl)cc2Cl)oc1N1CCCCC1`, with 1.96%; and `N#Cc1cc(F)c(N2CCNCC2)cc1Cl`, with 12.7%; and `CCN1CCN(CC(O)COc2ccc(C(C)=O)cc2)CC1.Cl` (stereo not drawn), with 2.6%. Then `CCOc1ccc(OCCOCCOc2c(Cl)cccc2Cl)cc1`, with 6.65%. Take `O=C(Nc1ccc2c(c1)Cc1ccccc1-2)c1cccnc1`: the “hERG current change (%, negative = inhibition) at 1uM” value is listed as -3.47%. Turning to `O=c1cc(O)c2c(=O)n(Cc3ccccc3)c3ccccc3c2o1`, the “hERG current change (%, negative = inhibition) at 1uM” value was found to be 10.4%.

Regarding `CS(=O)(=O)N(CC(=O)N1CCN(Cc2ccccc2)CC1)c1cccc(Cl)c1`, the “hERG current change (%, negative = inhibition) at 1uM” value was -23%.

On to `CN(C)CCCN(C(=O)COc1ccccc1)c1nc2ccc(Cl)cc2s1.Cl`, for which the “hERG current change (%, negative = inhibition) at 1uM” value is -14.2%.

As for `CC(C)(C)S(=O)(=O)c1cnc(N2CCCCC2)nc1N`, the “hERG current change (%, negative = inhibition) at 1uM” value came to 14.9%. `COc1ccc([C@H]2CC(=O)C=C(c3ccc4[nH]ccc4c3)C2)cc1OC`: the “hERG current change (%, negative = inhibition) at 1uM” value was 13.1%.

Turning to `CC(=O)N1N=C(c2cccc([N+](=O)[O-])c2)OC1c1cccc(Br)c1` (stereo not drawn), the “hERG current change (%, negative = inhibition) at 1uM” value was determined as 8.07%. Then `COC(=O)C1=C(c2cccc(C#N)c2)C[C@@H]2CC[C@H]1N2C(=O)NCc1ccco1`, with -3.94%; and `CNC(=O)NC(=O)COC(=O)CCc1nc(=O)c2ccccc2n1C`, with 7.53%; and `CN(C(=O)COC(=O)/C=C/c1ccc2ccccc2n1)c1c(N)n(Cc2ccccc2)c(=O)[nH]c1=O`, with 10.7%. Then `CN(C)c1ccc(C#Cc2ccc3cc(CCO)oc(=O)c3c2)cc1`, with 14.2%; and `CS(=O)(=O)N(CC(=O)N1CCN(c2ccccc2F)CC1)c1ccc2c(c1)OCCO2`, with -5.62%; and `Cc1cnccc1CN(C)Cc1nc(Cc2ccccc2Cl)no1`, with 17.4%.

In the case of `C=CCN1C(=O)c2ccc(C(=O)NCC(=O)Nc3c(C)cc(C)cc3C)cc2C1=O`, the “hERG current change (%, negative = inhibition) at 1uM” value came out at 15.7%.

The values above are taken from publication PMC4336329 (PLoS ONE, 2015).
